Residue numbers refer to the chain shown, from its start. No constants are given. Whether binding was seen depends on the method and setting. Some entries that bind do so weakly or less than the wild type.
Tests used:
[1] = biological target: T1, human CLDN6 on Ba/F3 cells (hCLDN6/BaF) (human) (UniProt P56747); experiment: flow cytometry on Ba/F3 transfectants (hCLDN6/BaF, hCLDN3/BaF, hCLDN4/BaF, hCLDN9/BaF), antibody at 15 micro g/ml, Alexa Fluor 488 anti-human IgG
T1 sequence: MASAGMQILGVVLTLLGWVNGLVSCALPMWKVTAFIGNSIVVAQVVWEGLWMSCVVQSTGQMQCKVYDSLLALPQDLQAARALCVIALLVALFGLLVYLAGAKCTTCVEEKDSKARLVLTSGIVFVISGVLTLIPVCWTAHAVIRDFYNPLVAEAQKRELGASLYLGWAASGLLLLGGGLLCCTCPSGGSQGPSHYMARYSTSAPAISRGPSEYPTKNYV

The chains behind the UniProt entries cited, without tags or fusion partners. Residues count along the entry.
UniProt A9YYE7, residues 24-186: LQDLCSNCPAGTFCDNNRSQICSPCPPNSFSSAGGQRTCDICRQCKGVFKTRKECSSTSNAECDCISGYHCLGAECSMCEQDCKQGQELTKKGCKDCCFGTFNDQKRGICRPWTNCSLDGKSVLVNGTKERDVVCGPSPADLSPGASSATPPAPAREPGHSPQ

[2] = biological target: T1, human CLDN6 on Ba/F3 cells (hCLDN6/BaF) (human); experiment: flow cytometry on hCLDN6/BaF3 cells, antibody at 15 micro g/ml, detection with Alexa Fluor 488 anti-human IgG
hCLDN3/BaF3 = biological target: T2, hCLDN3/BaF3; experiment: flow cytometry on hCLDN3/BaF3 cells, detection with Alexa Fluor 488 anti-human IgG
T2 sequence (membrane protein): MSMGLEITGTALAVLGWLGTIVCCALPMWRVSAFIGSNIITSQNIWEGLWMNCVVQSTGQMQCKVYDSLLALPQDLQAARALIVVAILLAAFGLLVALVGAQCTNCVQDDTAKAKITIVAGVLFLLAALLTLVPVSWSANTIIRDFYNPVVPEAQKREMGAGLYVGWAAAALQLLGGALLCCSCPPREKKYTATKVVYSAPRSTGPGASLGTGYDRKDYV

hCLDN4/BaF3 = biological target: T3, hCLDN4/BaF3; experiment: flow cytometry on hCLDN4/BaF3 cells, detection with Alexa Fluor 488 anti-human IgG
T3 sequence (membrane protein): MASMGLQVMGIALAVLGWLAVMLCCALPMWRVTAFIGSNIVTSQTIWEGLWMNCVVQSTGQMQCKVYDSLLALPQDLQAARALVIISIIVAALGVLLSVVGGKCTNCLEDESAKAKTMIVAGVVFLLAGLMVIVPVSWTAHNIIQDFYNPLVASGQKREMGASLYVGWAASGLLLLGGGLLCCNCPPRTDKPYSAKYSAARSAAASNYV

[3] = biological target: T4, human CLDN6 VLP (virus-like particle) (human) (UniProt P56747); experiment: SPR Biacore T200, CLDN6 VLP captured by anti-human CD81
T4 sequence: T1 sequence

[4] = biological target: recombinant cyno CD137 (cynomolgus monkey) (UniProt A9YYE7); experiment: SPR Biacore 8K, antibody captured by anti-human Fc

B1: CS2961 (bispecific antibody, V domains shown)
VH 1: QVQLVESGGGVVQPGGSLRLSCAASGFTFSSYTMSWVREAPGQGLEWMGTISSGGGRTYYPDSVKGRFTISRDNSKNTLYLQMNSLRDEDTAVYYCARGDYRYDGFAYWGEGTLVTVSS
VL 1: DIQMTQSPSSLSASVGDRVTITCRASYNIDSYLAWYQKKPGKAPELLIYYSTLLVDGVPDRFSGSRSGTDFTLTISSLQPEDFATYYCQHYYSIPYTFGQGTKVEIE
VH 2: QVQLVESGGGVVQPGGSLRLSCAASGFTFSNAWMHWVRKAPGKGLEWVAQIKDKSQNYATYVAESVKGRFTISRADSKNSIYLQMNSLKTEDTAVYYCRYVHYAAGYGVDIWGQGTTVTVSS
VL 2: DIVMTQSPLSLPVTPGEPASISCRSSQPLVHSNRNTYLHWYQEKPGQAPRLLIYKVSNRFSGVPDRFSGSGSGTDFTLKISRVEAEDVGVYYCGQGTQVPYTFGQGTKLEIK
For B1, the binding [1] was “binds” and the binding [2] was “binds”.

B2: KLH/TR01 (bispecific antibody, V domains shown)
VH 1: QVQLQQSGPQLVRPGASVKISCKASGYSFTSYWMHWVNQRPGQGLEWIGMIDPSYSETRLNQKFKDKATLTVDKSSSTAYMQLSSPTSEDSAVYYCALYGNYFDYWGQGTTLTVSS
VL 1: DIQMTQSSSSFSVSLGDRVTITCKASEDIYNRLAWYQQKPGNAPRLLISGATSLETGVPSRFSGSGSGKDYTLSITSLQTEDVATYYCQQYWSTPYTFGGGTKLEVK
VH 2: B1 VH 2 with K39Q
VL 2: B1 VL 2 with E43Q
For B2, the binding (hCLDN3/BaF3) was “no binding (tested: 15 micro g/ml)” and the binding (hCLDN4/BaF3) was “no binding (tested: 15 micro g/ml)”.

B3: PPU4135 (bispecific antibody, human IgG1, kappa, L234A L235A, N297A)
heavy 1: QVQLVESGGGVVQPGGSLRLSCAASGFTFSSYTMSWVRQAPGQGLEWMGTISSGGGRTYYPDSVKGRFTISRDNSKNTLYLQMNSLRDEDTAVYYCARGDYRYDGFAYWGEGTLVTVSSASTKGPSVFPLAPSSKSTSGGTAALGCLVEDYFPEPVTVSWNSGALTSGVHTFPAVLESSGLYSLSSVVTVPSSSLGTQTYICNVNHKPSNTKVDKRVEPKSCDKTHTCPPCPAPEAAGGPSVFLFPPKPKDTLMISRTPEVTCVVVDVSHEDPEVKFNWYVDGVEVHNAKTKPREEQYASTYRVVSVLTVLHQDWLNGKEYKCKVSNKALPAPIEKTISKAKGQPREPQVYTLPPSREEMTKNQVSLTCLVKGFYPSDIAVEWESNGQPENNYKTTPPVLDSDGSFFLYSKLTVDKSRWQQGNVFSCSVMHEALHNHYTQESLSLSP
light 1: DIQMTQSPSSLSASVGDRVTITCRASYNIDSYLAWYQQKPGKAPELLIYYSTLLVDGVPDRFSGSRSGTDFTLTISSLQPEDFATYYCQHYYSIPYTFGQGTKVEIERTVAAPSVFIFPPSDEQLKSGTAKVVCLLNNFYPREAKVQWKVDNALQSGNSKESVTEQDSKDSTYSLSSTLTLSKADYEKHKVYACEVTHQGLSSPVTKSFNRGEC
heavy 2: QVQLVESGGGLVQPGRSLRLSCAASGFKFSNVWFHWVRQAPGKGLEWVAQIKDYYNAYAAYYAPSVKGRFTISRDDSKNSIYLQMNSLKTEDTAVYYCHYVHYASASTLLPAEGVDAWGQGTTVTVSSASTKGPSVFPLAPSSKSTSGGTAALGCLVKDYFPEPVTVSWNSGALTSGVHTFPAVLKSSGLYSLSSVVTVPSSSLGTQTYICNVNHKPSNTKVDKRVEPKSCDKTHTCPPCPAPEAAGGPSVFLFPPKPKDTLMISRTPEVTCVVVDVSHEDPEVKFNWYVDGVEVHNAKTKPREEQYASTYRVVSVLTVLHQDWLNGKEYKCKVSNKALPAPIEKTISKAKGQPREPQVYTLPPSRKEMTKNQVSLTCLVKGFYPSDIAVEWESNGQPENNYKTTPPVLDSDGSFFLYSKLTVDKSRWQQGNVFSCSVMHEALHNHYTQKSLSLSP
light 2: DIVMTQSPLSLPVTPGEPASISCQPSQEVVHMNRNTYLHWYQQKPGQAPRLLIYKVSNRFPGVPDRFSGSGSGTDFTLKISRVEAEDVGVYYCAQGTSHPFTFGQGTKLEIKRTVAAPSVFIFPPSDEQLKSGTAEVVCLLNNFYPREAKVQWKVDNALQSGNSEESVTEQDSKDSTYSLSSTLTLSKADYEKHKVYACEVTHQGLSSPVTKSFNRGEC
B3 was tested, and the binding [3] was “binds” and the binding [4] was “binds”.
